# Reference: PubChem BioAssay AID894 (National Center for Advancing Translational Sciences (NCATS), 2007)
# Values joined by “and” are separate entries in the source; they are usually repeats but may differ in a detail not shown here. Equal values may be shown once. The campaign covered roughly 150,000 compounds. About 6,500 (4.3%) were called active. The shares of active, inactive and inconclusive entries below differ from those in the screen. Calls come from the whole dose curve; as a rule, active = well fitted inhibition curve with a large enough effect (not every such curve was filed as active); inconclusive = small, poorly fitted or top-dose-only effect, or another doubt; inactive = no such curve, though single readings can be large or run the other way. No potency is given beside an inconclusive call; the fits are too rough.
# Molecular target: 15-hydroxyprostaglandin dehydrogenase [NAD(+)] (Homo sapiens) (UniProt P15428)
# Sequence of UniProt P15428 (P15428 whole entry, looked up): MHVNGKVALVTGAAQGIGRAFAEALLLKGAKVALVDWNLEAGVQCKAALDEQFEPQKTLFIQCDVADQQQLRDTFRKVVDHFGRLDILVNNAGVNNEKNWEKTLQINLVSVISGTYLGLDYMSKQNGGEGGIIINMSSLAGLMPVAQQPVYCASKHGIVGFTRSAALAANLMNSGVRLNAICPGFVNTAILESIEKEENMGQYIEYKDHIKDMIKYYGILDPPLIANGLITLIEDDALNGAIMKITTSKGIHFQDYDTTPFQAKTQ
# Assay: qHTS Assay for Inhibitors of HPGD (15-Hydroxyprostaglandin Dehydrogenase)
# Settings: purified HPGD, NADH fluorescence kinetic, PGE2 substrate; activity change, negative = inhibition: active compounds read low
# Summary of the method: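 NADH formation kinetics: reaction with 30 uM PGE2 and 1 mM NAD+ (final), 20 nM enzyme, Tris-HCl pH 8 with Tween 20, after 15 min compound preincubation at room temperature. Fluorescence change, last versus first of five reads.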
# % is set by controls: 0 for no effect and ±100 for the full control effect; potency is the fitted concentration of half-maximal effect; tags give direction and shape of the fitted curve.
SMILES,"activity change, negative = inhibition",Potency
CN[C@H](CC(=O)O)C(=O)O,inactive: -2.85% and inactive: -18.4%,
Cc1oc2c(c1C(=O)c1ccccc1)C(=O)C(=O)c1ccccc1-2,,"inconclusive [inhibitor, single point]"
COc1[nH]c(/N=C/c2ccccc2)c(C#N)c1C#N,,"inconclusive [inhibitor, single point]"
O=c1c2cnn(-c3ccccc3)c2ncn1Cc1ccco1,,"inconclusive [inhibitor, single point]"
CCn1nc2cc(C(=O)NCc3cc(C(F)(F)F)cc(C(F)(F)F)c3)ccc2c1OC,,"inconclusive [inhibitor, full curve]"
CCOC(=O)c1cnc2ccc(Cl)cc2c1Nc1ccc(S(=O)(=O)Nc2ncccn2)cc1,inactive: -15.7%,
CCOc1ccccc1C1C(C(=O)OC)=CN(C)C=C1C(=O)OC,,"inconclusive [inhibitor, partial curve]"
CCNc1nc(NCC)nc(Oc2ccc(OCC)nn2)n1,inactive: -6.75%,
Oc1ccc(-c2nc(-c3ccc(O)c(O)c3)cs2)cc1,,"inconclusive [inhibitor, partial curve]"
COc1ccc(NC(=O)CSc2nnc(Cc3cccn3C)n2-c2ccc(OC)cc2)cc1,inactive: -3.01%,
CCOc1ccccc1NC(=S)/C(=C(\[O-])c1ccc2c(c1)OCCO2)[n+]1ccc(CC)cc1,,"inconclusive [inhibitor, single point]"
Cc1oc(C)c(C(=O)O)c1COc1ccc(C(=O)O)cc1,inactive: 0.0856%,
CCOc1cc(/C=C/c2nc3ccccc3s2)ccc1OCC(=O)N1CCOCC1,,"inconclusive [inhibitor, partial curve]"
CCOC(=O)c1sc(=S)sc1SCc1cccc(C(F)(F)F)c1,,active: 28.2 µM
CCN(CC)CC(=O)Nc1c(C)cc(C(C)(C)C)cc1C,,active: 25.1 µM
CCOCCCNC(=O)C(NC(=O)c1cnccn1)c1ccc(C)cc1 (centres undefined),inactive: 2.23%,
O=C1CSC(c2cn(-c3ccccc3)nc2-c2ccc3c(c2)OCCO3)N1CCN1CCOCC1 (centres undefined),,"inconclusive [inhibitor, partial curve]"
Cn1nc(C(=O)N2CCOCC2)c([N+](=O)[O-])c1C(=O)N1CCOCC1,inactive: -3.83%,
Cc1ccc(S(=O)(=O)CCC(=O)OCC(=O)Nc2ncc(Cl)cc2Cl)cc1,,"inconclusive [inhibitor, partial curve]"
O=C(CSc1nnc(-c2ccccn2)n1Cc1ccco1)c1ccccc1,inactive: -28.5%,
CCCn1c(CC)nc([N+](=O)[O-])c1Sc1ccc(F)cc1,,"inconclusive [inhibitor, partial curve]"
C=CCNC(=O)/C(C#N)=C/c1cn(-c2ccccc2)nc1-c1cccs1,,"inconclusive [inhibitor, partial curve]"

SMILES,"activity change, negative = inhibition",Potency
O=C(Nc1cccc2[nH]ncc12)c1ccc(F)cc1,,"inconclusive [inhibitor, single point]"
CC(=O)OC/C=C(\C)CCC=C(C)C,inactive: -3.94%,
COc1ccc(S(=O)(=O)n2ccnc2)c2cccnc12,,"inconclusive [inhibitor, partial curve]"
COc1ccc(N2CCN(c3nc4c(c(=O)[nH]c(=O)n4C)n3Cc3cccc(C)c3)CC2)cc1,,"inconclusive [inhibitor, partial curve]"
CC(C)c1cc(N2CCN(C(=O)c3ccco3)CC2)n2c(nc3ccccc32)c1C#N,,"inconclusive [inhibitor, partial curve]"
Nc1ccc(C(=O)OCc2csc(-c3ccccc3)n2)cc1[N+](=O)[O-],inactive: -9.04%,
CCOC(=O)c1cc(-c2ccc(Cl)cc2)nc2c1c(C)nn2CCC#N,,"inconclusive [inhibitor, partial curve]"
CCC(C(=O)O)n1nnc(-c2ccc(-c3ccc(OC)cc3)cc2)n1 (centres undefined),,"inconclusive [inhibitor, partial curve]"
COc1ccc(-c2nn3c(COc4ccccc4)nnc3s2)cc1OC,,"inconclusive [inhibitor, partial curve]"
Cn1cccc1C(=O)Nc1nccs1,,active: 31.6 µM
CC(C)CN(C(=O)CSc1nnc2ccccn12)c1c(N)n(CC(C)C)c(=O)[nH]c1=O,,"inconclusive [inhibitor, partial curve]"
CNc1oc(-c2ccc(Cl)cc2)nc1P(=O)(c1ccccc1)c1ccccc1,,"inconclusive [inhibitor, partial curve]"
COc1ccc(OC)c(N/C=C2/CCCCC2=O)c1,,active: 17.8 µM
Cc1cc(C)c2c(n1)nn1c(NCCCn3ccnc3)cc(C)nc21,,"inconclusive [inhibitor, partial curve]"
COc1cc2[nH]c(=S)nc(NCCCOC(C)C)c2cc1OC,,active: 17.8 µM
Cc1cccc(-n2c(SCC(=O)N3CCCC3)nc3n[nH]c(C)c3c2=N)c1,,"inconclusive [inhibitor, partial curve]"
NCC1O[C@@H](O[C@@H]2C(O)[C@H](O[C@H]3OC(CO)C(O)C(N)C3O)[C@@H](N)C[C@H]2N)C(N)C(O)C1O (some centres undefined),inactive: -11.5%,
Cc1ccc(Cn2c(N)c(S(=O)(=O)c3cccs3)c3nc4ccccc4nc32)cc1,,"inconclusive [inhibitor, partial curve]"
O=C(/C=C/c1ccc(O)cc1)c1ccccc1O,,"inconclusive [inhibitor, partial curve]"
CCOC(=O)c1cnn(-c2ccccn2)c1N,,"inconclusive [inhibitor, partial curve]"
CCOc1cc(/C=C\c2[nH]c(=O)[nH]c(=O)c2[N+](=O)[O-])ccc1OC(C)CC (centres undefined),,"inconclusive [inhibitor, partial curve]"
Cc1occc1C(=O)N1CCN(c2ccc(Cl)c(Cl)c2)CC1,inactive: -19.4%,
